From PMC4336329 (PLoS ONE, 2015)
Among all 310,000 compounds or so, about 14,000 (4.5%) showed an effect of 50% or more. The effect is printed as a negative number. Some of the results follow. Where a SMILES comes first, the peptide text is derived from it. The star is where a group is joined. Boc = CC(C)(C)OC(=O)*

These molecules were tested against human ether-à-go-go-related gene (hERG) potassium channel (human, UniProt Q12809) (assay: primary screen, population patch clamp on CHO cells stably expressing hERG).
Sequence of human ether-à-go-go-related gene (hERG) potassium channel (Q12809 whole entry, looked up): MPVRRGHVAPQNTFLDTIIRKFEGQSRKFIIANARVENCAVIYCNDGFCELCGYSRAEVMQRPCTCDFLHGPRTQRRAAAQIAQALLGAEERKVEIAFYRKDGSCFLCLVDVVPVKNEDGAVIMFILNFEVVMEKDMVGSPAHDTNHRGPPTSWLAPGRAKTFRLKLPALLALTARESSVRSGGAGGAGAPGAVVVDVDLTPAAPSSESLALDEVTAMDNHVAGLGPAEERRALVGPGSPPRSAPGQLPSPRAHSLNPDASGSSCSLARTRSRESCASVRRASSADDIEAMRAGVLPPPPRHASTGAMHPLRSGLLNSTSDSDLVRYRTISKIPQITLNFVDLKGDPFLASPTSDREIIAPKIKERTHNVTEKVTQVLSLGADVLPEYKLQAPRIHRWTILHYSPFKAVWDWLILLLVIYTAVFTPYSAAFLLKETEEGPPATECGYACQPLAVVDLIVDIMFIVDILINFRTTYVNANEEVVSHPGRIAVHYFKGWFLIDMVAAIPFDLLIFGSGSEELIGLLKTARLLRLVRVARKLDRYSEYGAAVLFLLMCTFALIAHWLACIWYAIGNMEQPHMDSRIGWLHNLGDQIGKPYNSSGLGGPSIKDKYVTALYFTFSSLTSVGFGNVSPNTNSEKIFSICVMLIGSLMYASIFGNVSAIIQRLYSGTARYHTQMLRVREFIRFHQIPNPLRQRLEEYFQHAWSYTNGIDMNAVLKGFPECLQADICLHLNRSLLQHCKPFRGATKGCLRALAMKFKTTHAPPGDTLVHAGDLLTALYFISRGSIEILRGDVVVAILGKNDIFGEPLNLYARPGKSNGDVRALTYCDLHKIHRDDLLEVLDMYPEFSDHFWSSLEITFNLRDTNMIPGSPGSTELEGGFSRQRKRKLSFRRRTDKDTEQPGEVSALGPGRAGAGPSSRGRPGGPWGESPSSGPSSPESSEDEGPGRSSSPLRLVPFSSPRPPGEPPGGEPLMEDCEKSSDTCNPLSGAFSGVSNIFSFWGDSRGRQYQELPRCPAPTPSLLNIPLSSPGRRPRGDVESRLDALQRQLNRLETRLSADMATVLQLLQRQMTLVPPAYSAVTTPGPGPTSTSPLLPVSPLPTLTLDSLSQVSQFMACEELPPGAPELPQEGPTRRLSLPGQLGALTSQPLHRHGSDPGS
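Note: peak tail current of the secondary pulse compared with the same well before compound.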

SMILES | hERG current change (%, negative = inhibition) at 10uM
O=C(Nc1ccc(O)cc1)c1ccc2c(c1)C(=O)N(N1C(=O)c3ccccc3C1=O)C2=O | -4.59%
COc1cc(-c2cc(C(=O)Nc3ccc(S(=O)(=O)NCc4ccco4)cc3)c3ccccc3n2)cc(OC)c1OC | 7.98%
CC(=O)Nc1nc(-c2ccccc2)cc(-c2ccco2)c1C#N | 6.82%
CCc1nnc(NS(=O)(=O)c2ccc(N=Cc3c(C)[nH]n(-c4ccc(C)cc4)c3=O)cc2)s1 | -7.16%
Cc1cccc(C)c1NC(=S)NC1CCCCC1 | 8.33%
CC(C)CNC(=S)NC1CC2CCCC(C1)N2C1CCCCC1 (stereo not shown) | 18%
C#CCOCCOCCOCCNc1nc(N2CCN(C(=O)[C@H](CCC(=O)O)n3cc(C(N)CO)nn3)CC2)nc(N2CCN(C(=O)[C@H](CCC(=O)O)n3cc(C(N)[C@H](C)CC)nn3)CC2)n1.Cl (stereo partly shown) | -12.8%
Cc1cc2c(o1)CC(C)(C)CC2=O | 16.8%
O=C(c1ccc(COCC(F)(F)F)o1)N1CCCCCC1 | -12%
CC(C)(C)OC(=O)N1CCCC1C(=O)NC(Cc1ccccc1)C(=O)O (stereo not drawn) (Boc-Pro-Phe-OH; configuration not given here) | 6.32%
CC(=O)Oc1ccc2ccc(=O)oc2c1 | 27.2%
COc1cc(C(=O)NCC(=O)OCC(=O)Nc2nnc(-c3ccccc3)o2)cc(OC)c1OC | 26.7%
CCCCn1c(N)c(N(CC)C(=O)C2CCN(C(=O)c3ccccc3C)CC2)c(=O)[nH]c1=O | -2.13%
Cc1ccc(S(=O)(=O)N2CCC3(CC2)OCCN3S(=O)(=O)c2c(C)cc(C)cc2C)cc1 | 14.3%
CN(C)CCCN(C(=O)c1ccco1)c1nc2cc3c(cc2s1)OCO3.Cl | -43.7%
FC(F)Sc1ccc(NC(=S)NCc2ccccc2)cc1 | -18.9%
COc1c(F)cccc1C1=CC(=O)C[C@H](c2ccc3c(c2)OCO3)C1 | 19.8%
CCCCN(Cc1ccccc1)C1CCN(Cc2ccccc2)CC1 | -53.5%
O=C(NCC1CCCO1)C1CCN(C(=O)c2ccc(Cl)cc2)CC1 (stereo not shown) | -1.73%
Cc1cccc(-n2cc(CN3CCN(Cc4nccn4C)CC3)c(-c3cccc(F)c3)n2)c1 | 2.98%
C=C(C)c1cccc(C(C)(C)NC(=O)NC(c2ccccc2)c2ccc(OC)cc2)c1 (stereo not shown) | -20%

SMILES | hERG current change (%, negative = inhibition) at 10uM
CCC(=O)Nc1cccc(C2=NOC3(C2)C[C@@H](C(N)=O)N(C(=O)c2cc([N+](=O)[O-])cc([N+](=O)[O-])c2C)C3)c1 (stereo partly shown) | -9.23%
C/C(=N\Nc1ccc(S(N)(=O)=O)cc1[N+](=O)[O-])c1ccco1 | -3.64%
COc1ccc(C(=O)OC2C[C@H]3CC[C@H](C2)N3C)cc1OC.Cl (stereo partly shown) | -4.94%
Cc1c(C(=O)N2CCN(c3ccc(C(F)(F)F)cn3)CC2)oc2ccccc12 | -4.85%
CCNc1sc(S(C)(=O)=O)nc1S(=O)(=O)c1ccc(Cl)cc1 | 17.8%
Cc1ccc(CNC(=O)C2(S(=O)(=O)c3ccc(C)cc3)CC2)cc1 | 4.02%
O=C(NCCc1cccc(F)c1)C1CCCN(c2nc3ccccc3s2)C1 (stereo not shown) | 7.76%
COc1ccc(Cl)cc1C(=O)NNC(=O)c1cccc(S(=O)(=O)N(C)C)c1 | -6.73%
CCOC(=O)C1=C(O)C(=O)NC(c2ccccc2)=C(OC2CCCCC2)C1 | 5.9%
CN(C)CCNC(=S)Nc1ccccc1Cl | -0.904%
COc1ccc(/C=C(/NC(=O)c2ccc([N+](=O)[O-])cc2)C(=O)NC(C)(C)C)cc1 | -40.8%
CC(NC(=O)COC(=O)C1CSC2(C)CCC(=O)N12)C12CC3CC(CC(C3)C1)C2 (stereo not shown) | 8.92%
COc1nn(CC(=O)N2N=C(C)CC2(O)C(F)F)cc1[N+](=O)[O-] (stereo not shown) | 4.18%
COc1cc(/C=N\Nc2nc3ccccc3[nH]2)cc(OC)c1OC | -19.8%
COc1ccc(-c2cc(C(F)(F)F)n3nc(C(=O)NCc4ccco4)cc3n2)cc1OC | 3.75%
CCOc1cc(S(=O)(=O)NCC2OCCc3ccccc32)c(OCC)cc1-n1cnnn1 (stereo not shown) | -21.5%
CC1CN(Cc2ccccn2)CCC1=O.Cl (stereo not shown) | 8.17%
C/C(=N\N(C)c1ccccc1)c1c(O)[nH]c(=O)[nH]c1=O | 7.71%
CCN(CC)CCOCCOc1ccccc1F | -3.91%
Cc1cc(Br)ccc1-n1[nH]c(C)c(C=Nc2cccc3nsnc23)c1=O | 40.7%
Cn1nc(C(C)(C)C)cc1C(=O)Nc1nc2c(s1)C(=O)CC(C)(C)C2 | -21%

SMILES | hERG current change (%, negative = inhibition) at 10uM
O=[N+]([O-])c1ccc2nonc2c1Nc1ccccc1 | -2.23%
COC(=O)C1=C(C(=O)OC)C(c2cc([N+](=O)[O-])ccc2O)c2sc(=O)[nH]c2S1 (stereo not shown) | 1.28%
COC(=O)c1[nH]c2cccc(OC)c2c1NC(=O)C(C)N1CCC(C)CC1 (stereo not shown) | -21.6%
Cn1c(CCN2CCCCC2)nc2cc(NS(=O)(=O)c3ccc(F)cc3)ccc21 | -67.6%
COc1ccc(-n2nc(C(=O)Nc3nc4ccc(OC)cc4s3)c3ccccc3c2=O)cc1 | 1.17%
COc1cccc(NC(=O)CSc2nc3ccccc3c(=O)n2Cc2cccs2)c1 | 8.3%
O=C1NC(=NCc2ccccc2)S/C1=C\c1ccccc1 | 23.8%
COc1cccc(NC(=O)COC(=O)c2cccnc2)c1 | 4.09%
CC(=O)c1sc2nc(-c3ccc(C)cc3)c3c(c2c1N)CCCC3 | 2.68%
O=C([C@@H]1CC=C[C@@H]2CCN(C3CC3)C(=O)[C@@H]21)N1CCN(c2ccccc2)CC1 | 4.08%
COc1ccc(/C=N/NS(=O)(=O)c2ccc(F)cc2)cc1COc1cc(F)ccc1[N+](=O)[O-] | -3.47%
COCCCNC(=O)c1ccc(N(C)S(=O)(=O)c2ccc(OC)cc2)cc1 | -20.6%
CCN(CC)S(=O)(=O)c1ccc(C(=O)NNc2nc(-c3ccccc3)c3cc(Br)ccc3n2)cc1 | 6.53%
Cn1nc(-c2ccccc2)c(C(=O)NCC(=O)O)c1Cl | 18%
CCN(CC)C(=O)COC(=O)c1ccc(C)c(NC(=O)c2ccco2)c1 | 32.3%
Cc1ccccc1NC(=O)/C(=C\c1cccs1)NC(=O)c1ccccc1 | -1.92%
Cc1cccc(NC(=O)CSCC(=O)N2CCN(Cc3ccc4c(c3)OCO4)CC2)c1 | -23.3%
COc1ccc(CCNC(=O)COC(=O)/C=C/c2ccc(OC)c(OC)c2)cc1 | -16%
Cc1ccc(Oc2ccc(S(=O)(=O)N3CCOCC3)cc2C(N)=O)c(-n2nc3ccccc3n2)c1 | -40%
CC1COc2ccccc2N1S(=O)(=O)c1ccc(Cl)cc1 (stereo not shown) | -4.34%
CCc1ccc(CN2CCN(Cc3ccc(SC)cc3)CC2)cc1.O=C(O)C(=O)O | -67.9%

SMILES | hERG current change (%, negative = inhibition) at 10uM
CCN(CC)S(=O)(=O)c1ccc(O)c(NC(=O)c2ccc(N3CCOCC3)c([N+](=O)[O-])c2)c1 | -2.91%
CC(C)(C)C(=O)Nc1nc(NC(=O)C(C)(C)C)nc(-c2ccccc2Cl)n1 | 2.78%
Cc1ccc(/C=C/C(=O)CCC(=O)O)cc1 | 12.2%
CCCC1CCC(=C(C#N)C(N)=O)CC1 (stereo not shown) | -32.8%
O=C(NCc1ccc2c(c1)OCO2)c1c[nH]c2ccc(S(=O)(=O)N3CCOCC3)cc2c1=O | 0.962%
ClC1(Cl)CC1Cn1c(C2CC2)nc2ccccc21 (stereo not shown) | -5.84%
CCN1C(=O)[C@H]2[C@@H](c3ccc(-c4ccc(Cl)c(Cl)c4)cc3)N3CCCC[C@@]3(C(=O)OC)[C@H]2C1=O.O=C(O)C(F)(F)F | 23.1%
Cc1[nH]c2ccccc2c1CCO | 5.37%
O=C(/C=C/c1ccccc1)OCc1cnc(Cl)s1 | -6.4%
O=C(c1ccco1)N1CCN(C(=O)C2CCN(S(=O)(=O)Cc3ccccc3)CC2)CC1 | -6.67%
COc1ccc(NC(=O)c2ccc3nccnc3c2)cc1 | 9.16%
Cc1cccc(N2CCN(c3nc4ccc(Cl)cc4n4cnnc34)CC2)c1C | -4.08%
O=C(O)C1=C[C@@H](C2CCCCC2)C[C@@H](OCCCCO)O1 | 9.42%
Cc1cc(C2(c3ccc(O)c(C)c3)C(=O)Nc3ccccc32)ccc1O | -5.5%
Br.N=C1c2ccccc2CN1NC(=O)c1ccc(F)cc1 | 5.11%
COc1ccc(NC(=O)Nc2ccc(OCc3ccccc3)cc2)cn1 | 20.4%
Cc1cc(C)c2c(N)c(C(=O)N3CCCCCC3)sc2n1 | -21.9%
O=C(NNC(=O)c1ccc2ccccc2n1)c1ccc(O)cc1 | -0.416%
Cc1ccc(C(=O)N2CCN(S(=O)(=O)c3ccccc3[N+](=O)[O-])CC2)o1 | -17.3%
